In PubChem BioAssay AID1346428 (National Center for Advancing Translational Sciences (NCATS), 2018):
About 1,200 (2.5%) of roughly 48,000 compounds were called active. Inconclusive results (about 2%) are left out.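 How the source made its calls: active means activation of at least 60% and not above a set upper limit (about 1 call in 100 departs from these limits); inconclusive means activation of 40% to 60%, or above that upper limit; inactive means activation under 40%.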 Some of the results follow.
Further: 0% is about no effect.

The compounds below were run against Probable G-protein coupled receptor 32 (Homo sapiens) (UniProt O75388) (assay: qHTS for Agonists of Human Resolvin D1 Receptor DRV1). Conditions: CHO-K1 GPR32 beta-arrestin PathHunter luminescence, 90 min; at 76.9 µM; stronger effect = higher value; zero percent set by DMSO-only wells.
Chain of UniProt O75388 (O75388 whole entry, looked up): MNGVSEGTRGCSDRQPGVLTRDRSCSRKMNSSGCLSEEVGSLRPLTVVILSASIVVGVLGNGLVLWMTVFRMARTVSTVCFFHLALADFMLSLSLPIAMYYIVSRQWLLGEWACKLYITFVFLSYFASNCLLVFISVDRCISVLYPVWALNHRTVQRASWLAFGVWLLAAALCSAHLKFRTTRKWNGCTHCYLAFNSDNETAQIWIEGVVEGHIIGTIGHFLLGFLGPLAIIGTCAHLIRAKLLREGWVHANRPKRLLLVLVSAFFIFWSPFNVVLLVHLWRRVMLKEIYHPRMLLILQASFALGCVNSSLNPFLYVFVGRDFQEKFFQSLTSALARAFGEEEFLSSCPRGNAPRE
Method in brief: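 Luminescent readout of beta-Gal complementation quantifies ligand-induced beta-arrestin association with GPR32 in CHO-K1 cells; 90 min compound incubation at 37 °C, detection 1 h at room temperature.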
With `O=C(/C=C/c1ccccc1)Nc1nc2n(n1)C(c1ccc(F)cc1)C=C(c1ccccc1)N2` (stereo not drawn) the activation was inactive: -18.3%.
`CC(C)Oc1ccc(CNC(=O)c2ccc(NC(=O)N3CC(C)Sc4ccccc43)cc2)cc1` (stereo not drawn) was tested, and the activation was inactive: -18.7%.
In the case of `Cc1cc(C)c(S(=O)(=O)NCC(c2ccco2)S(=O)(=O)c2cccs2)c(C)c1` (stereo not drawn), the activation is reported as inactive: -24%.
With `Cc1cc(Br)cc2c1N(Cc1ccccc1OC(C)C)C(=O)C2=O` the activation was inactive: -30.9%.
For `CC1CCc2onc(C(=O)N3CCN(c4cccc(Cl)c4)CC3)c2C1` (stereo not drawn), the activation was inactive: -17.7%.
With `CCc1nn2c(=O)c(S(=O)(=O)Nc3ccc(C)c(C)c3)c(C)nc2s1` the activation was inactive: 19.8%.
With `CCOC(=O)CNC(=O)c1cc2c(=O)n3cccc(C)c3nc2n1C` the activation was inactive: -0.302%.
For `CC(=O)CC/C=C(\C)CC/C=C(\C)CC/C=C(\C)CCC=C(C)C`, the activation was inactive: 30.6%.
For `Cc1ccc2c(=O)cc(C(=O)Nc3sc4c(c3C(=O)NCC3CCCO3)CCCC4)oc2c1C` (stereo not drawn), the activation was inactive: -3.99%.
`Cc1ccc(Cl)cc1NC(=O)CCc1c(C)nc2c3cccnc3nn2c1C` was tested, and the activation was inactive: -8.16%.
In the case of `O=C(c1cccc(Cl)c1)N1c2ncnn2C2(CCCCC2)[C@@H]2CCCC[C@@H]21`, the activation is reported as inactive: -20.2%.
In the case of `Cc1ccc2c(c1)N(C(=O)N1CCC(C(=O)NCCc3ccccc3)CC1)CC(C)O2` (stereo not drawn), the activation is reported as inactive: -8.79%.
With `COc1ccc(-c2ccc3c(N)c(C(=O)NCc4ccc(C)cc4)sc3n2)cc1` the activation was inactive: -9.97%.
With `CC(C)(C)OC(=O)N1CCC(c2c(C(=O)NCCN3CCOCC3)cnn2-c2ccc(F)cc2)CC1` the activation was inactive: -0.253%.
`COc1ccc(C)cc1NC(=O)C(Cc1ccccc1)NS(=O)(=O)c1ccc(Br)s1` (stereo not drawn) was tested, and the activation was inactive: 29.8%.
`O=C(COc1ccc(F)cc1)Nc1nnc(SCc2cc(=O)n3ccccc3n2)s1` was tested, and the activation was inactive: 2%.
In the case of `CCOc1ccc(-c2nonc2NC(=O)c2oc3cc(C)ccc3c2C)cc1OCC`, the activation is reported as inactive: -4.97%.
For `COc1ccc(N2Cc3cccc(C(=O)Nc4ccc(Cl)cc4)c3C2=O)cc1`, the activation was inactive: 33.6%.
For `CC[N+](CC)(CC)CC(=O)Nc1c(C)cccc1C`, the activation was inactive: -2.87%.
With `Cc1cc(Cl)ccc1NC(=O)CN1C(=O)COc2ccc(S(=O)(=O)Nc3ccccc3)cc21` the activation was inactive: -0.527%.
`COc1cccc(Cn2c(SCc3ccc(C(=O)N4CCCCC4)cc3)nc3ccncc32)c1` was tested, and the activation was inactive: 30.7%.
For `O=C(Nc1nc2n(n1)C(c1ccccc1)C=C(c1ccc(Cl)cc1)N2)c1ccco1` (stereo not drawn), the activation was inactive: -2.16%.
In the case of `CCOC(=O)C1CCCN(C(=O)c2ccc3c(c2)sc2nc(-c4ccc(C)cc4C)cn23)C1` (stereo not drawn), the activation is reported as inactive: 4.06%.
`Cc1ccc(CN(Cc2ccco2)C(=O)COc2cccc(C)c2C)o1` was tested, and the activation was inactive: 7.91%.
With `CCc1ccccc1NC(=O)c1sc(-n2nc(C)c(Cc3ccccc3)c2C)nc1C` the activation was inactive: -8.74%.
`COCc1cc(C)nc2sc3c(=O)n(-c4ccccc4C(F)(F)F)nnc3c12` was tested, and the activation was inactive: 7.55%.
For `COc1ccc(CNC(=O)C2CCN(S(=O)(=O)c3ccc4c(c3)CCCN4C(C)=O)CC2)cc1`, the activation was inactive: 2.38%.
For `Cc1ccc(C)c(CSc2nnc3[nH]c(=O)cc(-c4ccccc4)n23)c1`, the activation was inactive: -1.24%.
In the case of `CCOC(=O)c1c(S(=O)(=O)NCC(=O)NCc2ccccc2Cl)c(C)n(C)c1C`, the activation is reported as inactive: 0.0738%.
`CCCn1cc(S(=O)(=O)c2cc(C)ccc2C)c(=O)c2cc(F)c(N3CCN(CC)CC3)cc21` was tested, and the activation was inactive: -21.5%.
For `Cc1cccc(C)c1-n1ncc(C(=O)N2CCN(c3ncccn3)CC2)c1C1CCN(C(=O)OC(C)(C)C)CC1`, the activation was inactive: -5.76%.
With `COCCCn1c(=O)c2sccc2n2c(CCCC(=O)NC3CCC(C)CC3)nnc12` (stereo not drawn) the activation was inactive: -9.31%.
With `Cc1cccc(NC(=O)C2CCN(S(=O)(=O)c3ccc4c(c3)CCCN4C(=O)C3CCC3)CC2)c1` the activation was inactive: -15.1%.
`COc1ccc(NC(=O)CSc2cn(CCNC(=O)c3c(F)cccc3F)c3ccccc23)cc1` was tested, and the activation was inactive: 21.5%.
For `COc1ccc(C(=O)N(Cc2ccc(N(C)C)cc2)CC2CCCO2)cc1` (stereo not drawn), the activation was inactive: -16.2%.
With `COc1cc(NC(=O)CSc2nc(-c3ccc(C(C)C)cc3)no2)cc(OC)c1` the activation was inactive: 4.93%.
In the case of `CCCN1CCN(CCCNC(=O)Cn2nc(C)n3c(cc4c(OC)cccc43)c2=O)CC1`, the activation is reported as inactive: -2.39%.
In the case of `CCN1CCN(Cc2c(O)ccc3c(=O)c(Oc4ccccc4C(C)C)c(C(F)(F)F)oc23)CC1`, the activation is reported as inactive: -4.86%.
With `Cc1ccc(NC(=O)CSc2nc3ccc(NC(=O)CCc4ccccc4)cc3s2)cc1` the activation was active: 65.9%.
With `COc1ccc(-c2noc(-c3ccc(NC4CCCC4)c([N+](=O)[O-])c3)n2)cc1OC` the activation was inactive: -47.8%.
With `COc1cc(Cl)c(C)cc1NC(c1ccccc1)c1nnc(-c2ccccc2Cl)o1` (stereo not drawn) the activation was inactive: -30.5%.
For `Cc1ccccc1CNC(=O)c1ccc2nc(C(C)C)oc2c1`, the activation was inactive: -11.1%.
In the case of `CCN(C(=O)Cn1c(=O)n(Cc2ccccc2)c(=O)c2c1c1cc(OC)ccc1n2C)c1ccccc1`, the activation is reported as inactive: -4.69%.
With `Cc1ccc(NC(=O)Cn2cnc3c2c(=O)n(C)c(=O)n3C)cc1C` the activation was inactive: 10.1%.
For `Cc1ccc(CNC(=O)c2cc3ccc4cccnc4c3[nH]2)cc1`, the activation was inactive: 34%.
For `Cc1ccc(C)c(N2CCN(S(=O)(=O)c3cn(C)c(C)n3)CC2)c1`, the activation was inactive: 4.71%.
With `COc1ccc(C2=Nc3ccc(OC(F)(F)F)cc3NC(c3cccnc3)=N2)cc1` the activation was inactive: 14.9%.
For `CC(=O)Nc1ccc2nc(NC(=O)CS(=O)(=O)c3ccc(C)cc3)sc2c1`, the activation was inactive: 45%.
For `CCC(C)n1c(=N)c(C(=O)NC2CCCCC2)cc2c(=O)n3ccccc3nc21` (stereo not drawn), the activation was inactive: -9.2%.
In the case of `Cc1ccc(C(=O)c2oc3ccccc3c2NC(=O)c2cc(=O)c3cc(C)ccc3o2)cc1`, the activation is reported as inactive: -0.24%.
With `O=C(Nc1ccc(Cl)cc1)N1CCC(CN2CCCCCC2)CC1` the activation was inactive: -10.9%.
With `COc1cccc(Cn2ccn(-c3ccc(F)cc3)c(=O)c2=O)c1` the activation was inactive: -7.92%.
In the case of `Cc1ccc(NC(=O)c2nnn(Cc3cccc(C(F)(F)F)c3)c2N)c(C)c1`, the activation is reported as active: 93.4%.
